Measurements taken from the supplement of paper PMC6531468.
The list shows a part of the results. Read counts after selection give these values, which scatter widely. Scores sum up all selected molecules that hold the word; the word was not tested alone.

Experiments:
Experiment in all cases: 6-mer SELEX enrichment z-score vs GST control; IMP3 is the RNA-binding protein IGF2BP3; higher = more enriched by binding
[1] = test system: IMP3 RRM1-2; settings: construct: RRM1-2 (1-163); SELEX round: R2
Method: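 SELEX-seq with GST-tagged IMP3 RRM1-2 (Met1-Asn163) and an N40 RNA pool, round 2. 6-mer enrichment z-score normalised to GST SELEX. RNA written as DNA (T = U).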

[2] = biological target: IMP3 full-length (UniProt O00425); settings: construct: FL IMP3 (1-579); SELEX round: R4
Method: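 SELEX-seq with GST-tagged full-length IMP3 and an N40 RNA pool, round 4. Each 6-mer is scored as an enrichment z-score of sequence tags containing it, normalised to the matching GST SELEX round. RNA written as DNA (T = U).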

[3] = test system: IMP3 KH1-2; settings: construct: KH1-2 (164-376); SELEX round: R4
Method: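 SELEX-seq with GST-tagged IMP3 KH1-2 (Pro164-Phe376) and an N40 RNA pool, round 4 (stringent 300/600 mM KCl washes). 6-mer z-score of sequence-tag enrichment normalised to the corresponding GST SELEX round; RNA k-mers written as DNA (T for U).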

[4] = test system: IMP3 KH3-4; settings: construct: KH3-4 (377-579); SELEX round: R4
Method: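 SELEX-seq with GST-tagged IMP3 KH3-4 (Pro377-Lys579) and an N40 RNA pool, round 4. 6-mer z-score of sequence-tag enrichment normalised to the corresponding GST SELEX round; RNA k-mers written as DNA (T for U).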

Sequence of UniProt O00425 (O00425 whole entry): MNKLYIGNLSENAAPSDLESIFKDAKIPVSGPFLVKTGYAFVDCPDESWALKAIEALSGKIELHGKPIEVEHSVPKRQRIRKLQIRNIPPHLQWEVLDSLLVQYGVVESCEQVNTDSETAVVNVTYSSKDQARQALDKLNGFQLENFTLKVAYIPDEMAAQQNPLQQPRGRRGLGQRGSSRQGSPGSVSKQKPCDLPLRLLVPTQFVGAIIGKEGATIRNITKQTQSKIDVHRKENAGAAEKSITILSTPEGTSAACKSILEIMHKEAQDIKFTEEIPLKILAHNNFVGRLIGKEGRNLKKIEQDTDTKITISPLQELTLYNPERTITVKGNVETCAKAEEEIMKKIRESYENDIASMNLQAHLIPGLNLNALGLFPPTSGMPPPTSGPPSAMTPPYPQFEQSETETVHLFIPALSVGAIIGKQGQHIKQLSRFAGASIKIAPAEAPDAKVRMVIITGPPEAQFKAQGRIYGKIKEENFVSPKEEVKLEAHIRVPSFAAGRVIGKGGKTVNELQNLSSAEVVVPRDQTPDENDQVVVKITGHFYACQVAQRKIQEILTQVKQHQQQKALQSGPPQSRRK
Sequence of IMP3 RRM1-2 (chain, as listed by the source): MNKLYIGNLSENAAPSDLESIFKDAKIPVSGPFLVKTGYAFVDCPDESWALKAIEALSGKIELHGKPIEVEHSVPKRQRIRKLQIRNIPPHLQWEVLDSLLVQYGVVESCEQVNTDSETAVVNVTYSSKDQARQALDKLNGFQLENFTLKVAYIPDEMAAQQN
Sequence of IMP3 KH1-2 (chain, as listed by the source): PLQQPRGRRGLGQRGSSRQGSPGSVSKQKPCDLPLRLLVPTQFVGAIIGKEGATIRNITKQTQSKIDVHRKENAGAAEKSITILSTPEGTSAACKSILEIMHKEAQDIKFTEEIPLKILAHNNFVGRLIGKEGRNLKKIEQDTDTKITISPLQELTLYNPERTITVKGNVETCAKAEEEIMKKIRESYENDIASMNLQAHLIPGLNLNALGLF
Sequence of IMP3 KH3-4 (chain, as listed by the source): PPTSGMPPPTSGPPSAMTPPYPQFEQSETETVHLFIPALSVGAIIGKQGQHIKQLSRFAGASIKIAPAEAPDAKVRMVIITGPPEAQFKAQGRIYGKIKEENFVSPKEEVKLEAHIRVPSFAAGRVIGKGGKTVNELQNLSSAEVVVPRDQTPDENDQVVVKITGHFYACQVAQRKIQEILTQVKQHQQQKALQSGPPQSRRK

Sequence	6-mer SELEX enrichment z-score [1]	6-mer SELEX enrichment z-score [2]	6-mer SELEX enrichment z-score [3]	6-mer SELEX enrichment z-score [4]
TTGCTA	0.208	-0.06	0.187	0.358
CCGGAC	-1.19	-0.506	-0.708	-1.12
TCCGAT	-0.22	-0.315	-0.14	-0.46
CATACG	0.669	1.13	0.744	0.35
GTCTCT	0.62	0.329	-0.037	0.065
GTGACG	-0.424	-0.096	-0.206	-0.115
AATGGT	-0.071	-0.085	0.007	0.287
CCACGC	-0.07	-0.097	-0.506	-1.22
GGTCTA	0.197	0.116	0.051	0.263
CCCTAA	-0.606	-1.49	-1.1	-1.45
CGTGAA	-0.971	-0.654	-0.391	-0.299
GTTCTA	0.276	-0.059	0.106	0.259
AGGTTT	0.321	0.048	0.015	0.345
TTGGTG	0.522	0.143	0.042	0.131
GACCTG	-0.917	-1.28	-1.24	-1.46
CTCCCT	0.044	-0.447	0.046	-0.399
TTCCGA	-0.363	-0.615	-0.482	-0.801
CACCCA	-0.401	-1.19	-1.6	-2.33
TTAGCT	0.297	0.085	0.199	0.331
GGCCAG	-0.217	1.11	0.882	0.933
CATAGT	0.746	0.59	0.078	0.206
AGAACC	-1.35	-1.43	-0.972	-1.29
GATAAG	-0.717	-0.351	0.381	1.03
TAGATG	-0.306	-0.22	0.285	0.859
GCGTAT	0.086	-0.963	-1.63	-1.45
ACAGCC	0.13	0.409	-0.081	-0.943
GGGTCA	0.196	0.507	0.166	0.204
GCGATT	-0.068	-0.115	-0.245	-0.027
GTTATT	0.344	0.029	0.249	0.414
CAGCGC	0.201	0.227	-1.03	-1.3
